# The supplement of paper PMC9446081
# Screen size: about 39,000 compounds; about 220 (0.56%) showed activity. Some of the results follow.
# Test system: Escherichia coli K-12 BW25113
# Test: relative growth (OD600 normalised to plate interquartile mean) (fraction); higher = less growth inhibition, active = 0.2 or less
# Conditions: 50 µM; LB; incubation time: overnight (16-24 h)
# 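Note: static incubation at 37 °C against the wild-type strain, values averaged over two biological replicates.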
row,SMILES,relative growth
1,COc1ccc(NC(=O)Nc2ccc3c(c2)C(=O)N([C@H](C)CO)C[C@H](C)[C@H](CN(C)C(=O)NC2CCCCC2)OCCCC[C@@H](C)O3)cc1,inactive: 0.955
2,COCCNC(=O)C[C@H]1CC[C@H]2[C@@H](COc3ccc(NC(=O)Nc4cccc(F)c4)cc3C(=O)N2C)O1,inactive: 0.975
3,CO[C@@H]1CN(C)C(=O)c2cc(NC(=O)Nc3ccccc3F)ccc2OC[C@@H](C)N(Cc2ccccc2F)C[C@H]1C,inactive: 1.03
4,CO[C@H]1CN(C)C(=O)c2cc(NS(=O)(=O)c3ccccc3C)ccc2OC[C@@H](C)N(S(C)(=O)=O)C[C@@H]1C,inactive: 0.999
5,C[C@@H]1CN([C@H](C)CO)C(=O)c2cc(N(C)C)ccc2O[C@@H](C)CCCCO[C@H]1CN(C)Cc1ccc(C(F)(F)F)cc1,inactive: 0.969
6,C#CCN1C(=O)N(C(=O)c2ccccc2)[C@@H]2c3ccccc3O[C@@]1(COCc1ccc(OC)cc1)[C@@H]2CO[Si](C)(C)C(C)(C)C,inactive: 1.01
7,C[C@H]1CN([C@@H](C)CO)C(=O)c2cc(C#CC3(O)CCCC3)cnc2O[C@H]1CN(C)C(=O)CN(C)C,inactive: 0.988
8,Cc1noc(C)c1S(=O)(=O)N(C)C[C@@H]1Oc2ccc(NS(=O)(=O)c3cccs3)cc2CC(=O)N([C@@H](C)CO)C[C@@H]1C,inactive: 1.01
9,C[C@H](CO)N1C[C@H](C)[C@H](CN(C)CC2CCCCC2)OCCCC[C@H](C)Oc2ccc(NC(=O)Nc3cccc4ccccc34)cc2C1=O,inactive: 0.981
10,C[C@@H]1CCCCO[C@@H](CN(C)C(=O)CCC(F)(F)F)[C@H](C)CN([C@@H](C)CO)C(=O)c2cc(NC(=O)Cc3ccccc3)ccc2O1,inactive: 1.02
11,C[C@@H]1CCCCO[C@@H](CN(C)C(=O)NC2CCCCC2)[C@H](C)CN([C@@H](C)CO)C(=O)c2cc(NS(=O)(=O)c3cccs3)ccc2O1,inactive: 0.982
12,C[C@H]1CN([C@@H](C)CO)C(=O)Cc2cc(NC(=O)Nc3ccc(C(F)(F)F)cc3)ccc2O[C@@H]1CN(C)Cc1ccc(C(=O)Nc2ccccc2N)cc1,inactive: 1.01
13,Nc1ncnc2c1c(I)cn2[C@@H]1O[C@H](CO)[C@@H](O)[C@H]1O,inactive: 0.974
14,C[C@H]1CCCCO[C@H](CN(C)C(=O)Nc2ccc(C(F)(F)F)cc2)[C@@H](C)CN([C@@H](C)CO)C(=O)c2cc(NS(C)(=O)=O)ccc2O1,inactive: 0.93
15,C=CCNC(=O)[C@H]1[C@@H]2C(=O)O[C@@H](c3ccccc3)[C@@H](c3ccccc3)N2[C@@H](c2ccc(O)cc2)[C@]12C(=O)Nc1ccc(C#CC3=CCCCC3)cc12,inactive: 1.05
16,Cc1noc(C)c1NC(=O)Nc1cccc2c1O[C@H](CN(C)Cc1ccc(C(F)(F)F)cc1)[C@H](C)CN([C@@H](C)CO)C2=O,inactive: 0.98
17,C[C@H](CO)N1C[C@H](C)[C@H](CN(C)Cc2ccc(-c3ccccc3)cc2)Oc2ccc(NC(=O)Cc3cn(C)c4ccccc34)cc2CC1=O,inactive: 1.02
18,CC[C@H]1CN(C)N1C(=O)[C@H]1CCCO1,inactive: 0.927

row,SMILES,relative growth
1,COc1ccc2c3c(n(c2c1)C)[C@@H](CO)N(CC1CCOCC1)C[C@]13CCN(CC1)C(=O)Cc1cccnc1,inactive: 1.01
2,C[C@H](CO)N1C[C@H](C)[C@H](CN(C)C(=O)Nc2ccccc2)OCCCC[C@H](C)Oc2ccc(NS(=O)(=O)c3ccccc3)cc2C1=O,inactive: 1.03
3,CC(C)NC(=O)N(C)C[C@@H]1OCCCC[C@H](C)Oc2ccc(NC(=O)C3CCCCC3)cc2C(=O)N([C@@H](C)CO)C[C@@H]1C,inactive: 0.999
4,C[C@@H]1CN([C@H](C)CO)C(=O)Cc2cc(NC(=O)Nc3ccc(C(F)(F)F)cc3)ccc2O[C@H]1CN(C)Cc1ccc(Oc2ccccc2)cc1,inactive: 0.881
5,COc1cccc(OC)c1C(=O)O[C@H]1[C@@H]2OC(=O)[C@@H](Cc3ccc4ccccc4c3)C/C=C/C[C@H](Cc3ccc4ccccc4c3)C(=O)O[C@H]2[C@@H](OC)O[C@@H]1CO,inactive: 1.02
6,C[C@@H]1CN([C@H](C)CO)C(=O)c2cc(NC(=O)NC3CCCCC3)ccc2O[C@@H](C)CCCCO[C@H]1CN(C)C(=O)Nc1ccccc1,inactive: 1.02
7,COC(=O)CNC(=O)c1ccc(S(=O)(=O)N2CCOCC2)cc1,inactive: 0.998
8,CN(C)CCCCNC(=O)[C@H]1C[C@H]2C(=O)N[C@@H](CCCC[N+](C)(C)C)C(=O)N2[C@H]1c1cccc(OCCO)c1,inactive: 1
9,C[C@@H]1CN([C@@H](C)CO)C(=O)c2cccc(NC(=O)c3ccncc3)c2O[C@@H]1CN(C)Cc1ccncc1,inactive: 0.992
10,CC(C)(N)C(=O)N[C@H](COCc1ccccc1)C(=O)N1CCC2(CC1)CN(S(C)(=O)=O)c1ccccc12,inactive: 1
11,O=C(C[C@@H]1CC[C@@H]2[C@H](COC[C@H](O)CN2C(=O)c2ccncc2)O1)NC1CCC1,inactive: 1.01
12,C[C@H](CO)N1C[C@H](C)[C@H](CN(C)C(=O)Nc2ccc3c(c2)OCO3)Oc2ccc(NC(=O)CCN3CCOCC3)cc2C1=O,inactive: 0.977
13,C[C@@H]1CN([C@H](C)CO)C(=O)c2cc(NC(=O)CCN3CCOCC3)ccc2O[C@H]1CN(C)Cc1ccncc1,inactive: 0.994
14,C[C@H](CO)N1C[C@H](C)[C@H](CN(C)C(=O)c2ccncc2)OCCCC[C@H](C)Oc2ccc(NS(=O)(=O)c3ccc(Cl)cc3)cc2C1=O,inactive: 0.97
15,C[C@@H]1CCCCO[C@H](CN(C)C(=O)NC2CCCCC2)[C@@H](C)CN([C@@H](C)CO)C(=O)c2cc(NC(=O)CCC(F)(F)F)ccc2O1,inactive: 0.972
16,COCC(=O)Nc1ccc2c(c1)C(=O)N(C)C[C@@H](OC)[C@@H](C)CN(Cc1ccccc1OC)[C@H](C)CO2,inactive: 0.985
17,Cc1noc(C)c1S(=O)(=O)Nc1ccc2c(c1)CC(=O)N([C@H](C)CO)C[C@@H](C)[C@@H](CN(C)Cc1ccc(-c3ccccc3)cc1)O2,inactive: 0.979
18,COc1ccc(S(=O)(=O)N(C)C[C@H]2Oc3cc(C#CC4CCCC4)ccc3S(=O)(=O)N([C@H](C)CO)C[C@H]2C)cc1,inactive: 1.04
